# Measured values: the BET-seq Pho4 binding data (Le et al. 2018)
# The other results are listed elsewhere or left out. Values were computed here from the reads of four pooled replicates and scatter widely.
# Target: T1, Pho4 (S. cerevisiae) (UniProt P07270)
# T1 sequence: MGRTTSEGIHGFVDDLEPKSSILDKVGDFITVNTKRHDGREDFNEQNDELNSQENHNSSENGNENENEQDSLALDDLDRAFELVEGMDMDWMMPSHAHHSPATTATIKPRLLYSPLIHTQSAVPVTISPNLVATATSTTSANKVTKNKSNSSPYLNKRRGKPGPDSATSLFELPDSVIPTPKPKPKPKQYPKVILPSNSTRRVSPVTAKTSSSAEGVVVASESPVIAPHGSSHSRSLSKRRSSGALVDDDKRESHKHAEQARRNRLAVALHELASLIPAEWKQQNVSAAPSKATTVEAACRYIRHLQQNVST
# Assay: relative binding free energy (BET-seq); higher = weaker binding
# Settings: reference: library average
row,Sequence,relative binding free energy [kcal/mol]
1,TGAAACACGTGGTGGG,0.04
2,GGGCACACGTGGGGTG,-0.25
3,TGAGGCACGTGTTATG,-0.08
4,TTTAGCACGTGGATCG,0.06
5,GTTTTCACGTGGAACA,0.42
6,TTTATCACGTGCTGAT,-0.02
7,CGTGTCACGTGATGTT,0.24
8,TATATCACGTGATGGA,0.24
9,GTGTACACGTGAGTAA,0.45
10,GAGTGCACGTGTAGTC,0.09
11,AAGTTCACGTGGGGTC,0.26
12,GTTACCACGTGAAGGG,0.27
13,CCGGTCACGTGGGTGA,-0.13
14,ATTATCACGTGAGATG,0.35
15,AAGAACACGTGGGGGA,-0.08
16,ATAGTCACGTGGTAGG,0.02
17,TTTATCACGTGATTCT,0.07
18,GTGTACACGTGGGCGT,-0.06
19,AGTCACACGTGTTTAG,0.21
20,GTAGGCACGTGTGCAT,-0.01
21,ATAGGCACGTGTGGTA,-0.17
22,GCATGCACGTGGGGGA,-0.06
23,GATGTCACGTGAGTCG,0.4
24,GTGGACACGTGTAGCG,0.13
25,GTACACACGTGTTGTA,0.11
26,GGATGCACGTGTGACT,0.09

row,Sequence,relative binding free energy [kcal/mol]
1,TGATTCACGTGTGGAG,0.27
2,TATGTCACGTGTTTAT,0.04
3,GCGATCACGTGTGGGT,0.15
4,CTGGACACGTGGAAGG,-0.08
5,AGATTCACGTGTGTAC,0.34
6,TCGTCCACGTGTGTAT,0.22
7,ATCTTCACGTGGGTGA,0.12
8,CGGGACACGTGTTATG,-0.04
9,GATAACACGTGATTGG,0.21
10,TAATGCACGTGTGGAT,-0.05
11,ATTGCCACGTGATGTG,0.09
12,GTATTCACGTGGTCTA,0.37
13,GTATTCACGTGTGGGT,0.37
14,AAAAGCACGTGGGGAG,-0.17
15,AATGTCACGTGGGTCA,-0.05
16,TATTCCACGTGGTGGT,0.09
17,TTGGGCACGTGGCCTT,-0.21
18,TTATGCACGTGAGTGA,0.13
19,CAGGCCACGTGATGGG,0.06
20,ACTTTCACGTGGGCGG,0.06
21,TATACCACGTGGGGTA,-0.23
22,GGCCTCACGTGGTAGG,0.28
23,GTGAACACGTGGTATA,0.02
24,TCAGTCACGTGTATGT,0.14
25,ATTGGCACGTGGTACA,-0.25
26,TTACACACGTGAGTGG,0.14

row,Sequence,relative binding free energy [kcal/mol]
1,ATGTGCACGTGTAAAT,0.06
2,AGGGACACGTGATTAT,0.21
3,TTTTTCACGTGGGGTT,0.3
4,CGATGCACGTGTGTAT,-0.03
5,GAGTTCACGTGGGTCA,0.14
6,AGGTGCACGTGAGGAG,0.21
7,GGAGTCACGTGGTGAT,0.03
8,TATTCCACGTGTGGGC,0.27
9,TCTCTCACGTGGGGTT,0.05
10,GCGTCCACGTGTGGTT,0.06
11,TTTGACACGTGTCGAG,0.13
12,TGATTCACGTGCTGTT,0.35
13,CTAGGCACGTGATGGA,0.15
14,AGAGTCACGTGTAAGA,0.24
15,TTCTACACGTGATGTG,0.06
16,CTGGTCACGTGTTGGA,0.08
17,CGTGTCACGTGTGAGT,0.05
18,GTGGGCACGTGTAAAA,0.14
19,GAGGTCACGTGCTAAT,0.39
20,TGCTACACGTGGAGGT,0.02
21,GTAGTCACGTGTAGTC,0.17
22,GTTCGCACGTGGCGTG,-0.17
23,TACATCACGTGATGTG,0.12
24,ACGTGCACGTGGGCTG,-0.15
25,GTTGACACGTGCAGGC,0.12
26,AGGGTCACGTGTCGTT,0.15

row,Sequence,relative binding free energy [kcal/mol]
1,GGTTTCACGTGACATG,0.2
2,GGACCCACGTGGGTTG,-0.09
3,TTTCTCACGTGCTGGT,0.22
4,GGAGTCACGTGTGTAC,0.2
5,TGTGGCACGTGCAAGT,-0.14
6,GTGGTCACGTGTGTAT,0.28
7,AAGCTCACGTGTTGGT,0.23
8,TGGAGCACGTGGTGCA,-0.11
9,AGCAGCACGTGGGGGT,-0.28
10,GTGATCACGTGAATGT,0.09
11,TAGGTCACGTGGGGCC,-0.04
12,TCTGGCACGTGGAGAT,-0.13
13,TACTTCACGTGTTTAG,0.27
14,GTGGACACGTGCGGGT,0.05
15,ATTTTCACGTGTTAGC,0.29
16,GTGGTCACGTGGGTAT,0.04
17,CCTGTCACGTGTAGGT,0.19
18,GACGGCACGTGGATGG,-0.06
19,AGGCTCACGTGGTTTC,0.37
20,TGAAGCACGTGGATAG,-0.11
21,CGTGTCACGTGGGTAT,-0.1
22,TAGTCCACGTGTGGTT,0.18
23,TGGTCCACGTGTGTTC,0.12
24,TATATCACGTGTCGCG,0.28
25,TGGTACACGTGGAATT,0.27
26,GGTTGCACGTGTGAGC,0.16

row,Sequence,relative binding free energy [kcal/mol]
1,TGGAGCACGTGTAGAA,-0.12
2,CGGGGCACGTGGGCGA,-0.18
3,GAGGGCACGTGGTATA,-0.18
4,CATTACACGTGGTGGT,0.01
5,ATAAGCACGTGCTTTA,0.01
6,TGTAGCACGTGGCTAG,-0.17
7,TGCCGCACGTGGGAGG,-0.32
8,TGTCACACGTGGTGTT,-0.01
9,GTTGACACGTGAGGCG,0.19
10,GTGGTCACGTGTAGAC,0.23
11,TTTTACACGTGGTTCG,0.1
12,TATTACACGTGGGTCG,-0.15
13,AATAGCACGTGTAGGG,-0.11
14,TGTAACACGTGTTAAT,0.04
15,AGATTCACGTGATGTT,0.26
16,GGTTACACGTGTGATT,0.27
17,TGATTCACGTGGGCCT,0.12
18,TTATGCACGTGATACG,-0.02
19,GACTGCACGTGTTGTA,0.12
20,GGCGCCACGTGAGGTG,0.1
21,GGAAGCACGTGTCGGT,0.13
22,ATGCTCACGTGTTATA,0.19
23,ATGCACACGTGGCGGT,0.04
24,AGAGTCACGTGAGGTT,0.27
25,AGGTTCACGTGTACTT,0.25
26,TGGCGCACGTGATTGG,-0.02

row,Sequence,relative binding free energy [kcal/mol]
1,GTGAGCACGTGTGTGG,0.01
2,GTTAGCACGTGTTTGA,0.08
3,TGGATCACGTGAGAAT,0.34
4,TTGCACACGTGAGGGT,0.2
5,GATGGCACGTGGCTTT,0.09
6,GGATTCACGTGTTAGA,0.21
7,ATTGTCACGTGGAAGC,-0.01
8,GTGGTCACGTGCGGCA,0.21
9,GTCTGCACGTGTGTCG,0
10,CGCGTCACGTGTTGAG,0.11
11,TTGTGCACGTGAGAAT,0.41
12,GGGATCACGTGGGTGT,0.17
13,TGAGGCACGTGGGCTG,-0.28
14,TGTGCCACGTGTGGTA,-0.11
15,GTATTCACGTGCGTGA,0.13
16,GAATTCACGTGAGGAG,0.38
17,TTAAGCACGTGGCTGT,-0.05
18,ACATACACGTGGGTGT,-0.14
19,GGATGCACGTGTCCGT,0.16
20,TTGTGCACGTGGTTAT,-0.03
21,TGTATCACGTGGTATG,0.05
22,CCGGGCACGTGGAGTT,-0.13
23,AGGTTCACGTGTGATA,0.38
24,GTGTTCACGTGGAAGC,0.35
25,ATTGACACGTGTAGGC,0.06
26,TTTGTCACGTGAACGG,0.4

row,Sequence,relative binding free energy [kcal/mol]
1,CTGAGCACGTGGCGTT,-0.17
2,CCATACACGTGTGGGT,0.3
3,GCTCTCACGTGTGGGT,0.18
4,TTTTGCACGTGTTATT,0.14
5,ATACTCACGTGTGTCG,0.35
6,GAGGTCACGTGGAGAG,0.24
7,TGGAGCACGTGAACGG,0.13
8,CAAGGCACGTGGTGCG,-0.19
9,GTCTGCACGTGTTAGT,0.14
10,GTAAACACGTGGGTTT,0
11,TTGCGCACGTGTCAGG,-0.14
12,GAAGTCACGTGGGTCG,-0.08
13,TGATACACGTGGTCAG,-0.04
14,GTCGGCACGTGGCGGA,-0.04
15,GTTGACACGTGTAGAA,0.35
16,TTCATCACGTGGGGTG,0.12
17,GAGATCACGTGGTGGT,0.11
18,TAGTTCACGTGTGTCT,0.42
19,GGTTTCACGTGGTAGA,0.33
20,TGTAACACGTGAGGGC,0.24
21,GTGAACACGTGTATTG,0.14
22,GTATGCACGTGTCGAG,0.03
23,GGTGGCACGTGGCGCT,-0.15
24,GGGTTCACGTGGAAAG,0.43
25,GGCTTCACGTGTCGGG,0.3
26,ATTTTCACGTGTTTGA,0.19

row,Sequence,relative binding free energy [kcal/mol]
1,TGTGTCACGTGGGTCG,-0.01
2,GTGTACACGTGTAGGT,0.01
3,AATGGCACGTGACAGT,0
4,GAGTACACGTGGGTAG,0.02
5,TTTTTCACGTGTGGAG,0.35
6,ATATGCACGTGGTGAA,-0.16
7,GCTGGCACGTGGTGCT,-0.08
8,GGACTCACGTGTGGGA,0.04
9,TGAACCACGTGTGGTT,0.05
10,ATGTGCACGTGTAGTT,0.03
11,GTTGCCACGTGGTGCG,-0.12
12,GTTGTCACGTGGGCCA,0.05
13,TTTAACACGTGAAGTA,0.34
14,TGCGCCACGTGGGGAT,-0.12
15,TTAGGCACGTGATGGC,-0.12
16,TTTGGCACGTGCGATT,-0.1
17,AGATTCACGTGATAGT,0.26
18,GTTTACACGTGGTTTC,0.24
19,TTTGACACGTGCTCGT,0
20,GTGAACACGTGGGATT,0.08
21,TGATACACGTGGGGCC,0.12
22,AGTGTCACGTGTGTAG,0.09
23,GTTAGCACGTGTGGGA,-0.05
24,GGGGGCACGTGTTTCT,0.01
25,ATGAACACGTGGGTGT,-0.25
26,AGGCTCACGTGGGGAG,0.21

row,Sequence,relative binding free energy [kcal/mol]
1,TGCATCACGTGTGTTG,0.12
2,TTGCTCACGTGCGGGA,0.16
3,GGTTGCACGTGCAGTG,-0.08
4,ATTGACACGTGGACGT,-0.08
5,TGGATCACGTGTAGAT,0.46
6,CTTGTCACGTGGTCGA,0.04
7,GGCAGCACGTGTGTGA,-0.05
8,TTGAACACGTGTTTGT,0.06
9,TTTATCACGTGTGTCC,0.17
10,GCCGTCACGTGTTTTT,0.17
11,TGGAACACGTGGTTTT,0.02
12,TTGGTCACGTGTGTAC,0.19
13,TAGTTCACGTGCTCGG,0.27
14,TTTTCCACGTGTGGCG,0.17
15,TCGGTCACGTGGGTCT,-0.02
16,AGACACACGTGTGTTT,0.26
17,GTGTGCACGTGAATCG,0.2
18,GTTTTCACGTGCGTAA,0.22
19,TTTACCACGTGGGGGA,-0.22
20,TTTAACACGTGAGTCG,0.18
21,CATGGCACGTGAGAGT,0.14
22,AGTGGCACGTGTGCTA,-0.07
